Experiment [1] concerns the target PRMT1, endogenous (human (endogenous in HEK293)) (UniProt Q99873). The experiment in a line: co-IP; HEK293 protein extracts; immunoprecipitation with anti-PRMT1 or anti-PRMT4, beads alone and isotype-specific IgG as controls; Western blot for endogenous BMI1 and HPH2.
In experiment [2] the target is T1, PRMT4, endogenous (human (endogenous in HEK293)) (UniProt Q86X55).
T1 sequence: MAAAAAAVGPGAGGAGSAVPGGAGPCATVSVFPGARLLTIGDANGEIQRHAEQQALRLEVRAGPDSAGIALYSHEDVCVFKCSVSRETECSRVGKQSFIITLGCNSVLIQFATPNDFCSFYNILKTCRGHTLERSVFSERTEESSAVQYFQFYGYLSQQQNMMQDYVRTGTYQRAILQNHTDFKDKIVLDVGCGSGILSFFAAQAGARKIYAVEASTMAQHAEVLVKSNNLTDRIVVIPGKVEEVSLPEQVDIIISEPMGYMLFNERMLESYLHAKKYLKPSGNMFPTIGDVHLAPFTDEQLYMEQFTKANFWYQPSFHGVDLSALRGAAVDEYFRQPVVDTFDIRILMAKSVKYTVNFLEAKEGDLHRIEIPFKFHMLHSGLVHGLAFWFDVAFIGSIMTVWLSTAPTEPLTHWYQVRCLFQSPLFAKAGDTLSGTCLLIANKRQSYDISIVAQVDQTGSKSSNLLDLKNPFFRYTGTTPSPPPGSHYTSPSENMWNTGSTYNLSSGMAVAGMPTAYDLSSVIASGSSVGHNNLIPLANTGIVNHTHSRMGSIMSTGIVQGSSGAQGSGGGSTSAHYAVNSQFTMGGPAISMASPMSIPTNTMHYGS
The description is as above.

The chains behind the UniProt entries cited, without tags or fusion partners.
UniProt Q99873: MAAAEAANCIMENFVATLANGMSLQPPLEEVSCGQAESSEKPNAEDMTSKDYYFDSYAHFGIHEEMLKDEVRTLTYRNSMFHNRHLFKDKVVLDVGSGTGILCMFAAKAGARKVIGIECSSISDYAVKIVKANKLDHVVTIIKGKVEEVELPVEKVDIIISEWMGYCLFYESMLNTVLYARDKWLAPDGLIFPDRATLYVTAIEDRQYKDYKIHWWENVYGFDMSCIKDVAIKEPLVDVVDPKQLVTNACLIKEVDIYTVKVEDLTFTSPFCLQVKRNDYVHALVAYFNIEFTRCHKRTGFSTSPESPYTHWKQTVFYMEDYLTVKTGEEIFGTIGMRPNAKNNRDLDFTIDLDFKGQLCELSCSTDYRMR
UniProt Q96LA8: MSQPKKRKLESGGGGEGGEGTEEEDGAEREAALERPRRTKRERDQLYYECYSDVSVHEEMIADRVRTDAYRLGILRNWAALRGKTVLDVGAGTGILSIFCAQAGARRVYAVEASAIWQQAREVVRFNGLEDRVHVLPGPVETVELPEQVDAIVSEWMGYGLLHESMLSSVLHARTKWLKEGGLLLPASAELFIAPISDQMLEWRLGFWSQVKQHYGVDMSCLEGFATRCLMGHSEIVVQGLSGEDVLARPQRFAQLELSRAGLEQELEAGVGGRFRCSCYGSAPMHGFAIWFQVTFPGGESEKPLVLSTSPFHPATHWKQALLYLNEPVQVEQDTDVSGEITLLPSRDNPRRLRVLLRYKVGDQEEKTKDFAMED
UniProt P35226: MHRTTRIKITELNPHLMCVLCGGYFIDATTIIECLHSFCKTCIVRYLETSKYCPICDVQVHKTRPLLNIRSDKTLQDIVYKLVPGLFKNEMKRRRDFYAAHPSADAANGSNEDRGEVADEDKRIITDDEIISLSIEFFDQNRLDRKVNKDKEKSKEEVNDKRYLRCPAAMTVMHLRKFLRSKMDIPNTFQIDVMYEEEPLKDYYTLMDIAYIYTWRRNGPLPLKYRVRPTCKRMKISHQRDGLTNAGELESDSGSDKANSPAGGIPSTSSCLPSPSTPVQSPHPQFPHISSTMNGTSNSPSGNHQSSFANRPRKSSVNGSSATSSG

Experiment [3] addresses Protein arginine methyltransferase 6 (PRMT6), endogenous (human (endogenous in HEK293)) (UniProt Q96LA8). In words: co-IP; HEK293 protein extracts (untransfected or transfected, harvested 48 h after transfection); immunoprecipitation of endogenous PRMT6 with anti-PRMT6, isotype-specific IgG as control; Western blot of precipitates. Background: Immunoblotting shows a protein as a band on a membrane.

Experiment [4] shares this target. In words: co-IP; as the anti-PRMT6 IPs from HEK293 extracts, with ethidium bromide added in the IPs; data not shown.

The record followed here is publication PMC4746130.

No constants are given. Whether binding was seen depends on the method and setting. Binding seen in cells or lysates may run through a third protein. Some entries that bind do so weakly or less than the wild type.

For the molecule “BMI1, endogenous (from UniProt P35226 1-326)”, the binding entry in experiment [1] is listed as “no binding”; in experiment [2], “no binding”; in experiment [3], “binds”; in experiment [4], “binds”.

B1: HPH2, endogenous (protein, UniProt Q8IXK0 1-858)
chain: MENELPVPHTSSSACATSSTSGASSSSGCNNSSSGGSGRPTGPQISVYSGIPDRQTVQVIQQALHRQPSTAAQYLQQMYAAQQQHLMLQTAALQQQHLSSAQLQSLAAVQQASLVSNRQGSTSGSNVSAQAPAQSSSINLAASPAAAQLLNRAQSVNSAAASGIAQQAVLLGNTSSPALTASQAQMYLRAQMLIFTPTATVATVQPELGTGSPARPPTPAQVQNLTLRTQQTPAAAASGPTPTQPVLPSLALKPTPGGSQPLPTPAQSRNTAQASPAGAKPGIADSVMEPHKKGDGNSSVPGSMEGRAGLSRTVPAVAAHPLIAPAYAQLQPHQLLPQPSSKHLQPQFVIQQQPQPQQQQPPPQQSRPVLQAEPHPQLASVSPSVALQPSSEAHAMPLGPVTPALPLQCPTANLHKPGGSQQCHPPTPDTGPQNGHPEGVPHTPQRRFQHTSAVILQLQPASPPQQCVPDDWKEVAPGEKSVPETRSGPSPHQQAIVTAMPGGLPVPTSPNIQPSPAHETGQGIVHALTDLSSPGMTSGNGNSASSIAGTAPQNGENKPPQAIVKPQILTHVIEGFVIQEGAEPFPVGRSSLLVGNLKKKYAQGFLPEKLPQQDHTTTTDSEMEEPYLQESKEEGAPLKLKCELCGRVDFAYKFKRSKRFCSMACAKRYNVGCTKRVGLFHSDRSKLQKAGAATHNRRRASKASLPPLTKDTKKQPTGTVPLSVTAALQLTHSQEDSSRCSDNSSYEEPLSPISASSSTSRRRQGQRDLELPDMHMRDLVGMGHHFLPSEPTKWNVEDVYEFIRSLPGCQEIAEEFRAQEIDGQALLLLKEDHLMSAMNIKLGPALKIYARISMLKDS
As to B1, the binding entry in experiment [1] is listed as “no binding”; in experiment [2], “no binding”; in experiment [3] it was “binds”; in experiment [4] it was “binds”.
